# Assay results from ChEMBL document CHEMBL4513135, “CO-ADD screening of IQOG CSIS (Spain) compounds”.
# Values joined by “and” are separate entries in the source; they are usually repeats but may differ in a detail not shown here. Equal entries are not always repeated. This is one part of the list. Entries with a potency or affinity are not part of this list.
# Test system: Acinetobacter baumannii
# Conditions: Concentration 32 ug.mL-1, ASSAY_TEST Inhibition of Bacterial Growth, detection method Absorption (OD600), MEDIA CAMHB, plate type 384well, NBS, CORNING #3640, time 18 hr
structure (smiles),measurement,setting,value
N#CC1(Br)C(=NBr)Oc2ccc3ccccc3c2C1c1ccccc1 (stereo not drawn),Inhibition,,-3.68%
Cc1ccc(C2CC2(N)C(=O)O)cc1.Cl (stereo not drawn),Inhibition,,-3.73%
CCOC(=O)C1=C(C)OC(N)=C(C#N)C1c1ccccc1 (stereo not drawn),Inhibition,,7.79%
N#CC1=C(N)Oc2c(ccc3ccccc23)C1c1c(Cl)cccc1Cl (stereo not drawn),Inhibition,,0.55%
COc1nc2ccc(C)cc2cc1C=O,Inhibition,,14.54%
C#CCNc1cccc(F)n1,Inhibition,,11.82%
CN(C)c1nc(Cl)c(C#N)c(-c2ccccc2)c1C#N,Inhibition,,18.68%
O=C(N/N=C/c1c[nH]c2ccccc12)c1ccc(Cl)cc1,Inhibition,,-13.88%
COc1ccc2c(c1)cc(CN(C)C)n2C,Inhibition,,-2.87%
COc1ccc(C=C2N=C(c3ccccc3)SC2=O)cc1,Inhibition,,-3.42%
COc1cccc(C2c3c(ccc4ccccc34)OC(=N)C2(Br)C#N)c1 (stereo not drawn),Inhibition,32 ug/mL,7.07% and -8.6%
Cc1ccc(CNNC(=O)c2cc3ccccc3n2C)cc1,Inhibition,,-4.69%
N#CC1=C(Cl)Oc2c(ccc3ccccc23)C1c1ccc([N+](=O)[O-])cc1 (stereo not drawn),Inhibition,,-15.4%
O=C(N/N=C/c1ccc(Cl)cc1)c1cc2ccccc2[nH]1,Inhibition,,5.09%
CCOC(=O)C1=C(C)OC(N)=C(C#N)C1c1cccs1 (stereo not drawn),Inhibition,,6.26%
COc1nc(Cl)c(C#N)c(-c2ccccc2)c1C#N,Inhibition,,9.38%
CC(=O)n1cc(/C=C2\N=C(c3ccccc3)OC2=O)c2ccccc21,Inhibition,,6.37%
C#CCNc1nc(Cl)c(C#N)c(-c2ccccc2)c1C#N,Inhibition,,9.61%
C#CCN(C)c1nc(NC2CCN(Cc3ccccc3)CC2)c(C#N)c(-c2ccccc2)c1C#N,Inhibition,,13.62%
COc1cccc(C2C(C#N)=C(N)Oc3ccc4ccccc4c32)c1 (stereo not drawn),Inhibition,,8.2%
CCOC(=O)C1=C(C)NC(N)=C(C#N)C1c1ccc([N+](=O)[O-])cc1 (stereo not drawn),Inhibition,,3.48%
CC1(C)OS(=O)(=O)C2=C1NC(N)=C(C#N)C2c1ccccc1 (stereo not drawn),Inhibition,,-1.86%
CNC(=O)c1c(Cl)c2cc(OCc3ccccc3)ccc2n1C,Inhibition,,14.32%
Cc1nn(-c2ccccc2)c2ncnc(Nc3ccccc3)c12,Inhibition,,-3.07%
Cc1ccc2nc(Cl)c(/C=N/OCc3ccccc3)cc2c1,Inhibition,,3.92%
N#Cc1c(-c2ccccc2)c2c(ccc3ccccc32)oc1=O,Inhibition,,10.93%
N#Cc1c(Cl)nc(Sc2ccccc2)c(C#N)c1-c1ccccc1,Inhibition,,6.81%
COc1ccc(C2c3ccc4ccccc4c3OC(=NBr)C2(Br)C#N)cc1 (stereo not drawn),Inhibition,,4.37%
Cc1ccc(/C=N/NC(=O)c2c[nH]c3ccccc23)cc1,Inhibition,,-1.39%
CCCCCCC(C)NNC(=O)c1cc2ccccc2[nH]1 (stereo not drawn),Inhibition,,-0.82%
N#Cc1c(N)nc2[nH]nc(N)c2c1-c1ccccc1,Inhibition,,10.64%
C#CCN(Cc1ccccc1)c1nc(N)c(C#N)c(-c2ccccc2)c1C#N,Inhibition,,4.45%
CC#CCN.Cl,Inhibition,,4.75%
N#CC1(Br)C(=NBr)Oc2ccc3ccccc3c2C1c1ccccc1[N+](=O)[O-] (stereo not drawn),Inhibition,,-2.36%
Cl.NNN1CCc2ccccc21,Inhibition,,0.05%
CC(C)(C)OC(=O)Nc1ccccn1,Inhibition,,11.92%
O=C(Cc1c[nH]c2ccccc12)NNCc1ccccc1,Inhibition,,-0.43%
COc1cc(C2c3c(nc4c(c3N)CCCC4)Oc3ccc4ccccc4c32)cc(OC)c1OC (stereo not drawn),Inhibition,,-3.43%
C#CCNc1nc(NCCCCC2CCN(Cc3ccccc3)CC2)c(C#N)cc1C#N,Inhibition,,-18.35%
c1ccc(-c2nc3c4cnn(-c5ccccc5)c4ncn3n2)cc1,Inhibition,,-4.52%
CC(C)NNC(=O)Cc1c[nH]c2ccccc12,Inhibition,,-9.52%
CCOc1nc(N)c(C#N)c(-c2ccccc2)c1C#N,Inhibition,,4.91%
Cc1nc(Nc2ccccc2)c2cnn(-c3ccccc3)c2n1,Inhibition,,-3.92%
COC(=O)/C(=C/c1ccc(O)cc1)NC(=O)c1ccccc1,Inhibition,,6.28%
Cc1cc(Br)cc(C)c1NC=C(C#N)C#N,Inhibition,,13.39%
C#CCN(C)c1nc(N(C)CC#C)c(C#N)cc1C#N,Inhibition,,11.79%
COc1ccc2nc(Cl)c(C=O)cc2c1,Inhibition,32 ug/mL,15.1% and 13.38%
COC(=O)C(=Cc1ccc(OC)cc1)NC(=O)c1ccccc1,Inhibition,,2.13%
C#CCN(C)Cc1cc2cc(OCc3ccccc3)ccc2n1C.O=C(O)C(=O)O,Inhibition,,5.78%
COc1nc2ccccc2cc1C=O,Inhibition,,16.43%
Cc1ccc(CNNC(N)=O)cc1.Cl,Inhibition,,-2.24%
NNC(=O)c1c[nH]c2ccc(OCc3ccccc3)cc12,Inhibition,,-9.96%
CC(=O)CC(=O)N1[C@@H]2C[C@H]3CCC2(CS1(=O)=O)C3(C)C,Inhibition,,-1.41%
CN(C)c1cccc(C(=O)c2cccc(N(C)C)c2)c1,Inhibition,,0.52%
O=C1SC(SCc2ccccc2)=NC1=Cc1ccccc1,Inhibition,,-2.76%
O=C(N/N=C/c1c[nH]c2ccccc12)c1cc2ccccc2[nH]1,Inhibition,,-2.06%
N#Cc1cc(C#N)c(N2CCC(Cc3ccccc3)CC2)nc1N,Inhibition,,6.74%
COc1ccc(C=C2N=C(SC)N(C)C2=O)cc1,Inhibition,,5.41%
CC1=C(CO)C(c2ccc(C#N)cc2)C(C#N)=C(N)O1 (stereo not drawn),Inhibition,,7.59%
COc1cc(C2CC2(N)C(=O)O)ccc1O (stereo not drawn),Inhibition,,-6.23%
COc1ccc(C2C(C#N)=C(N)Oc3c2ccc2ccccc32)c(OC)c1 (stereo not drawn),Inhibition,,-1.28%
C#CCNc1nc(NC2CCN(Cc3ccccc3)CC2)c(C#N)cc1C#N.Cl,Inhibition,,10.55%
Cn1ccnc1C1c2ccc3cccnc3c2Oc2nc3c(c(N)c21)CCC3 (stereo not drawn),Inhibition,,-11.24%
CN(C)c1nc(N)c(C#N)cc1C#N.Cl,Inhibition,32 ug/mL,12.83% and -0.55%
COc1ccc(/C=C2/N=C(c3ccccc3)OC2=O)cc1OC,Inhibition,,1.7%
COc1nc(NC(C)=O)c(C#N)c(-c2ccccc2)c1C#N,Inhibition,,5.03%
COC(=O)C(=Cc1ccc([N+](=O)[O-])cc1)NC(=O)c1ccccc1,Inhibition,,2.23%
COC(=O)C(C#N)=Cc1ccccc1,Inhibition,,-0.14%
Nc1c2c(nc3c1C(c1ccc([N+](=O)[O-])cc1)c1ccc4ccccc4c1O3)CCCC2 (stereo not drawn),Inhibition,,-19.56%
C#CCNc1ncc(C#N)c(N)n1,Inhibition,,3.85%
N#Cc1c(N)nc(NCCCCC2CCN(Cc3ccccc3)CC2)c(C#N)c1-c1ccccc1,Inhibition,,-6.64%
N#Cc1c(N)nc(Cl)c(C#N)c1-c1ccccc1,Inhibition,,1.48%
O=C(O)C(=Cc1ccccc1)NC(=O)c1ccccc1,Inhibition,,-2.6%
Nc1n[nH]c2c1C(c1ccccc1)CC(=O)N2 (stereo not drawn),Inhibition,,15.85%
CCOC(=O)c1c(C)nc2nc3c(c(N)c2c1-c1ccc(Cl)cc1)CCCCC3,Inhibition,,5.05%
N#CC1=C(N)Oc2c(ccc3ccccc23)C1c1ccccc1 (stereo not drawn),Inhibition,,4.69%
C=CCNCc1cc2cc(OCCCC3CCN(Cc4ccccc4)CC3)ccc2[nH]1.O.O=C(O)C(=O)O.O=C(O)C(=O)O,Inhibition,,1.08%
COc1ccc(CNNC(=O)c2cc3ccccc3[nH]2)cc1,Inhibition,,-6.07%
O=C(N[C@H]1CC[C@@H](Br)[C@@H](Br)C1)C(F)(F)F,Inhibition,,11.7%
COc1ccc(-c2cc(-c3cc4ccc(F)cc4nc3Cl)cc(=O)[nH]2)cc1,Inhibition,,-6.5%
C#CCN(C)c1nc(NCC2CCN(Cc3ccccc3)CC2)c(C#N)c(-c2ccccc2)c1C#N,Inhibition,,-10.1%
N#Cc1c(N)nc(S)c(C#N)c1-c1ccccc1,Inhibition,,-3.37%
Cc1ccc(S(=O)(=O)N[C@H]2CC[C@H](O)CC2)cc1,Inhibition,,4.18%
CC(=O)NC(=Cc1ccccc1)C(=O)O,Inhibition,,-3.63%
N#CC1=C(N)Oc2c(ccc3ccccc23)C1c1ccc(Cl)c(Cl)c1 (stereo not drawn),Inhibition,,0.14%
O=C(O)c1cc2ccccc2[nH]1 [INDOLE-2-CARBOXYLIC ACID],Inhibition,,2.61%
ClCCC1CCN(Cc2ccccc2)CC1,Inhibition,,2.28%
CC1=NC(=Cc2ccc([N+](=O)[O-])cc2)C(=O)O1,Inhibition,,-6.48%
CCOC(=O)C1=C(C)Oc2nc3c(c(N)c2C1c1nccn1C)CCC3 (stereo not drawn),Inhibition,,0.84%
O=C(Cc1ccccc1)N/N=C/c1c[nH]c2ccccc12,Inhibition,,14.43%
CN1C/C(=C\Cl)n2c1c(C#N)cc(C#N)c2=O,Inhibition,,6.7%
Nc1c2c(nc3c1C(c1ccc([N+](=O)[O-])cc1)c1c(ccc4ccccc14)O3)CCCC2 (stereo not drawn),Inhibition,,-4.73%
COC1=C(C#N)CCC(=O)N1,Inhibition,,7.47%
O=C(O)c1c[nH]c2ccccc12,Inhibition,,1.08%
N#Cc1cccnc1N,Inhibition,,20.35%
CC/C(C)=N/NC(=O)Cc1c[nH]c2ccccc12,Inhibition,,-5.55%
CC(=O)C(=Cc1ccccc1)C(=O)O[C@H]1C[C@H](C)CC[C@H]1C(C)C,Inhibition,,-0.02%
O=C1OC(c2ccccc2)=NC1=Cc1ccc([N+](=O)[O-])cc1,Inhibition,,-1.95%
NNC(=O)Cc1c[nH]c2ccccc12,Inhibition,,3.39%
C#CCN(C)Cc1cc2cc(OCc3ccc(OC)c4ncccc34)ccc2n1C,Inhibition,,-7.66%
COC(=O)C1(NC(=O)c2ccccc2)CC1c1ccccc1 (stereo not drawn),Inhibition,,-9.02%
N#Cc1ccc(Br)cc1N,Inhibition,,19.35%
CCOC(=O)c1c[nH]c2ccc(OCc3ccccc3)cc12,Inhibition,,-2.63%
N#CC1=C(Cl)Oc2c(ccc3ccccc23)C1c1ccccc1 (stereo not drawn),Inhibition,,-4.73%
N#Cc1cc2c(N)c3c(nc2nc1Cl)CCN(Cc1ccccc1)C3,Inhibition,,1.22%
COC1(N)Oc2ccc3ccccc3c2C(c2ccccc2)C1(Br)C#N (stereo not drawn),Inhibition,,13.71%
CCOC(=O)C1=C(C)OC(N)=C(C#N)C1c1ccccc1OC (stereo not drawn),Inhibition,,2%
CC(=NNC(N)=O)c1c[nH]c2ccccc12,Inhibition,,8.63%
